Results as given in PubChem BioAssay AID1963576 (National Center for Advancing Translational Sciences (NCATS), 2024).
Out of some 46,000 compounds screened, about 60 (0.1%) were called active. Another 3% or so got no clear call; they are omitted. Calls follow the shape of the dose curve; as a rule, active = well fitted inhibition curve with a large enough effect; inconclusive = small, poorly fitted or top-dose-only effect; inactive = no such curve, though single readings can be large or run the other way. Some of the results follow.

Assay: Primary qHTS assay for Inhibitors of ovarian cancer metastasis using an organotypic tumor microenvironment (TME) model. Also: nearly all actives have a fitted effect of over 65% in size.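 As to activity change, negative = inhibition: plate controls were DMSO wells for no effect and tomatine positive control wells for full effect.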
Conditions: SKOV3ip1-GFP adhesion/invasion on 3D omental model, fluorescence; series mostly up to 45.8 µM; activity change, negative = inhibition: at the top concentration
Procedure, shortened: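 Primary human omental fibroblast/mesothelial 3D culture pre-formed 48 h. SKOV3ip1-GFP cells added with compounds (0.36-46 umol/L), incubated 2 h RT/16 h 37 C, fixed; GFP cells quantified at 488/509 nm.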

Compound | activity change, negative = inhibition | outcome
CCc1cccc(CC)c1NC(=O)Cn1nnc2sc3c(c2c1=O)CCCC3 | inactive: 2.18% | 
Cc1cccc(CC(=O)Nc2c(C(=O)Nc3cccc(F)c3)oc3ccccc23)c1 | inactive: 14.2% | 
CCOC(=O)C1CCN(C(=O)Cn2ncc3c4ccccc4n(Cc4ccccc4)c3c2=O)CC1 | inactive: -13.2% | 
Cc1ccc2c(c1)N(C(=O)CCC(=O)NCc1cccs1)CC(C)O2 (configuration not stated) | inactive: 0.649% | 
COC(=O)c1ccccc1NC(=O)Cn1c(CCC(=O)O)ccc1-c1ccc(C)cc1 | inactive: 6.98% | 
CC1CCN(C(=O)CSc2nnc(NC(=O)Nc3ccccc3)s2)CC1 |  | inactive
COc1ccc(CCNC(=O)c2ccc(Cn3c(SCC(=O)NCCC(C)C)nc4cc5c(cc4c3=O)OCO5)cc2)cc1OC | inactive: 5.27% | 
COc1cccc(-c2nc3c(C#N)c[nH]n3c2NC2CCC(C)CC2)c1 (configuration not stated) | inactive: 8.88% | 
CS(=O)(=O)c1ncc(Cl)c(C(=O)Nc2c(C(=O)c3ccc(Cl)cc3)oc3ccccc23)n1 |  | inactive
Cc1cc(NC(=O)CSc2ncc(C(=O)Nc3ccc(C)c(C)c3)c(=O)n2C)no1 |  | inactive
CC1=C(C(=O)Nc2cccnc2)C(c2ccccc2Cl)n2nc(-c3ccccc3)nc2N1 (configuration not stated) | inactive: 1.88% | 
Cc1cc(C)c2oc(-c3cccc(NC(=O)COc4ccccc4Cl)c3C)nc2c1 | inactive: 1.95% | 
Cc1cccc(Nc2nc3c(S(=O)(=O)c4ccc(Br)cc4)nnn3c3ccsc23)c1C | inactive: -23.2% | 
Cc1ccc(NC(=O)CCSc2nc(-c3ccc4c(c3)OCO4)cc(C(F)(F)F)n2)c(C)c1 | inactive: 15.4% | 
CN(C)c1ccc(CNC(=O)C2CCN(S(=O)(=O)c3ccc4[nH]c(=O)ccc4c3)CC2)cc1 | inactive: -1.31% | 
CC(C)C(=O)Nc1nnc(SCc2cc(=O)n3ccccc3n2)s1 |  | inactive
COc1cc(-c2ccno2)ccc1S(=O)(=O)N1CCN(c2ccccc2)CC1 | inactive: 0.796% | 
O=C(Nc1ccc2oc(-c3ccc4ccccc4c3)nc2c1)c1cc(Cl)ccc1Cl |  | inactive
CC(=O)c1c(C)n(-c2ccc(C)cc2)c2ccc(OC(=O)COc3ccccc3)cc12 |  | inactive
Cc1ccc2nc(CN3CCN(S(=O)(=O)c4ccc(C)c(C)c4)CC3)oc2c1 | inactive: -4.61% | 
Cc1cc(C(=O)N2CCN(c3cc(Cl)ccc3C)CC2)c2c(C)nn(-c3ccccc3)c2n1 | inactive: -18.4% | 
Cn1c(=O)n(C)c2cc(N3CCCC3)c(NC(=O)Nc3ccccc3)cc21 | inactive: -5.01% | 
Clc1cccc(-n2ncc3c(N4CCCCCC4)ncnc32)c1 | inactive: -4.79% | 
Cc1ccc(Cn2c(=O)n(Cc3ccccc3Cl)c(=O)c3cccnc32)cc1 | inactive: -0.996% | 

Compound | activity change, negative = inhibition | outcome
CCCCc1nn2c(=O)cc(COC(=O)c3cccs3)nc2s1 |  | inactive
CCNc1sc(S(C)(=O)=O)nc1S(=O)(=O)c1ccc(C)cc1 | inactive: -28.3% | 
Cc1ccc(N2CCN(c3nc4ccccc4c4nnc(C)n34)CC2)c(C)c1 | inactive: -9.8% | 
COc1cc(OC)c(NC(=O)c2c(C)oc3ncnc(N4CCCCC4)c23)cc1Cl | inactive: -8.18% | 
COC(=O)c1ccccc1NC(=O)Cn1c(=O)n(CCCCC(=O)NCc2ccc3c(c2)OCO3)c(=O)c2ccccc21 | inactive: 2.47% | 
Cc1ccc(NC(=O)Cn2ncn3c(cc4ccccc43)c2=O)cc1C |  | inactive
Cc1ccc(CNC(=O)c2cccc(Nc3nc4ccccc4n4nnnc34)c2)cc1 | inactive: -1.86% | 
CCc1ccc(NC(=O)CCNC(=O)Cn2cnc3ccccc3c2=O)cc1 | inactive: -1.39% | 
Cc1cccc(C)c1NC(=O)Cn1cc(S(=O)(=O)Cc2ccc(F)cc2)c2ccccc21 |  | inactive
CCOC(=O)c1c(C)[nH]c(C)c1S(=O)(=O)N(C)CC(=O)N1CCN(c2cccc(Cl)c2)CC1 | inactive: -10.5% | 
Cn1c(=O)c2c(nc(N3CCOCC3)n2Cc2ccccc2)n(C)c1=O |  | inactive
Cc1ccc(C(=O)c2cn(Cc3c(F)cccc3Cl)c3nc(C)ccc3c2=O)cc1 | inactive: -2.12% | 
Cc1ccc(CNC(=O)CN2C(=O)COc3ccccc32)cc1 | inactive: -19% | 
Cc1cc(C)cc(NC(=O)Cn2c(=O)n(CC(=O)NCCc3ccccc3)c(=O)c3ccccc32)c1 | inactive: 0.615% | 
COc1ccc(C(=O)Nc2nnc(SCc3cc(=O)n4cc(Cl)ccc4n3)s2)cc1 | inactive: -3.37% | 
O=C(NCCc1ccc(Cl)cc1)c1ccc(CS(=O)(=O)Cc2ccc(Cl)cc2)o1 | inactive: -4.59% | 
CCC(C(=O)NCc1ccc2c(c1)CCN2C(=O)c1ccc(F)cc1)c1ccccc1 (configuration not stated) | inactive: -8.2% | 
CCc1ccc(C2CC(=O)c3c([nH]c(C(=O)OCc4ccc(C)cc4)c3C)C2)cc1 (configuration not stated) | inactive: -28.1% | 
Cc1noc(-c2ccc(-c3noc(-c4ccccc4)n3)cc2)n1 | inactive: 4.79% | 
CC1CCN(S(=O)(=O)c2ccc3[nH]cc(C(=O)NCc4ccc(F)cc4)c(=O)c3c2)CC1 | inactive: 1.19% | 
CC(=O)c1cc(-c2ccccc2)n(CCC(=O)Nc2nc3c(C)cccc3s2)c1C | inactive: -5.77% | 
CCOc1ccc(CCNC(=O)c2cc(Nc3ccc(C)cc3C)nc3ccccc23)cc1OCC | inactive: -8.87% | 
CCOC(=O)c1cc(-c2ccc(C)cc2)n(CCC(=O)Nc2cc(Cl)ccc2C)c1C |  | inactive
